The test system of the assay is NCI-H1944. The assay can be described thus: normalised cell viability (NPI; 0 = phenylarsine oxide control, 1 = DMSO control) (fraction of DMSO control); NCI-H1944 is a non-small cell lung cancer line; higher = more viable cells (less compound toxicity). As to conditions: 6 days.
[1] abbreviates: glucocorticoid arm: hydrocortisone 2.75 uM co-treatment, compound 1 µM.
Where [2] appears, read: glucocorticoid arm: hydrocortisone 2.75 uM co-treatment, compound 5 µM.
Setting [3] is: glucocorticoid arm: hydrocortisone 2.75 uM pre-treated 2 days and continued, compound 1 µM.
[4] abbreviates: glucocorticoid arm: hydrocortisone 2.75 uM pre-treated 2 days and continued, compound 5 µM.
Where [5] appears, read: glucocorticoid arm: vehicle, compound 1 µM.
[6] abbreviates: glucocorticoid arm: vehicle, compound 5 µM.

Structures can show the parent of a compound that is named as a salt. ± gives the standard deviation of the averaged measurements. Whole data set: some 1,900 compounds, median “normalised cell viability (NPI; 0 = phenylarsine oxide control, 1 = DMSO control)” near 1, cut for the lowest 2% near 0.039. The list shows a part of the results.
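Note: CTB read-out in 384-well plates, mean of triplicate wells, normalised per plate against 1 µM phenylarsine oxide and 0.1% DMSO, compounds added 24 h after seeding.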

`Cn1cc(C2=C(c3cn(C4CCN(Cc5ccccn5)CC4)c4ccccc34)C(=O)NC2=O)c2ccccc21`: the normalised cell viability is, setting by setting: under setting [1], 1.007 ± 0.0058; under setting [2], 1.03 ± 0.023; under setting [3], 1.02 ± 0.016; under setting [4], 1.02 ± 0.011; under setting [5], 1.013 ± 0.0058; under setting [6], 1.02 ± 0.02.

Turning to `NC(=O)c1cc(N2CC2)c([N+](=O)[O-])cc1[N+](=O)[O-]`, the normalised cell viability amounted to 1.01 under setting [1]; 0.954 ± 0.012 under setting [2]; 1.037 ± 0.0058 under setting [3]; 1 ± 0.065 under setting [4]; 0.977 ± 0.015 under setting [5]; 0.8203 ± 0.0076 under setting [6].

On to `C[C@@H]1O[C@H](C[N+](C)(C)C)C[C@H]1O` (racemic) [(±)-Muscarine chloride], for which the normalised cell viability runs as follows: under setting [1], 1.02 ± 0.011; under setting [2], 1.03 ± 0.035; under setting [3], 1.01 ± 0.015; under setting [4], 1.05 ± 0.085; under setting [5], 0.9963 ± 0.0047; under setting [6], 1 ± 0.014.

Consider `CP(=O)(O)C1=CCNCC1`, for which the normalised cell viability came out at 1.02 ± 0.017 under setting [1]; 1.02 ± 0.01 under setting [2]; 1.03 ± 0.032 under setting [3]; 1.023 ± 0.0058 under setting [4]; 1.01 under setting [5]; 1.01 ± 0.011 under setting [6].

As to `NC(CCCCCP(=O)(O)O)C(=O)O` (racemic) [(±)-2-Amino-7-phosphonoheptanoic acid], the normalised cell viability reads like this: under setting [1], 0.98 ± 0.012; under setting [2], 0.9763 ± 0.0025; under setting [3], 0.9903 ± 0.005; under setting [4], 0.97 ± 0.013; under setting [5], 0.9873 ± 0.004; under setting [6], 0.972 ± 0.0072.

As for `CN1CC[C@]2(CCN3CCc4c(oc5ccccc45)[C@@H]3C2)N(C)C1=O`, the normalised cell viability under setting [1] turned out to be 1.003 ± 0.0058; the normalised cell viability under setting [2] stood at 0.974 ± 0.015; the normalised cell viability under setting [3] was found to be 1.01; the normalised cell viability under setting [4] was found to be 0.889 ± 0.24; the normalised cell viability under setting [5] was determined as 1.013 ± 0.0058; the normalised cell viability under setting [6] came out at 1.02 ± 0.015.

In the case of `Cc1cccc(Cc2c[nH]cn2)c1C` [Detomidine HCl], the normalised cell viability was 1.03 under setting [1]; 1.05 ± 0.02 under setting [2]; 1.02 ± 0.02 under setting [3]; 1.03 ± 0.039 under setting [4]; 1.023 ± 0.0058 under setting [5]; 1.02 ± 0.011 under setting [6].

For the compound `N#CC(C#N)=Cc1ccc(O)c(O)c1` [Tyrphostin 23], the normalised cell viability under setting [1] was 1.01 ± 0.01; the normalised cell viability under setting [2] came out at 1.033 ± 0.0058; the normalised cell viability under setting [3] came to 0.898 ± 0.2; the normalised cell viability under setting [4] was 0.987 ± 0.011; the normalised cell viability under setting [5] was 1.02 ± 0.01; the normalised cell viability under setting [6] worked out at 1.027 ± 0.0058.

With `N#CC(C#N)=Cc1ccc(O)c(O)c1`, the normalised cell viability under setting [1] was determined as 1.01 ± 0.015; the normalised cell viability under setting [2] worked out at 1.03 ± 0.015; the normalised cell viability under setting [3] is 1.01 ± 0.01; the normalised cell viability under setting [4] was 1 ± 0.018; the normalised cell viability under setting [5] was determined as 1.01; the normalised cell viability under setting [6] amounted to 1.023 ± 0.0058.

As for `NC(=O)CI` [Iodoacetamide], the normalised cell viability is 1.007 ± 0.0058 under setting [1]; 1.02 ± 0.011 under setting [2]; 1.017 ± 0.0058 under setting [3]; 0.991 ± 0.021 under setting [4]; 1.003 ± 0.0058 under setting [5]; 1.013 ± 0.0058 under setting [6].

On to `COc1ccc2[nH]c3c(c2c1)CCNC3` [6-Methoxy-1,2,3,4-tetrahydro-9H-pyrido[3,4b] indole], for which the normalised cell viability under setting [1] worked out at 0.979 ± 0.019; the normalised cell viability under setting [2] is 0.968 ± 0.024; the normalised cell viability under setting [3] amounted to 0.994 ± 0.0072; the normalised cell viability under setting [4] was found to be 0.974 ± 0.051; the normalised cell viability under setting [5] was found to be 0.986 ± 0.011; the normalised cell viability under setting [6] was found to be 0.9777 ± 0.004.

Take `Cc1cccc(C)c1NC(=O)CN1CCCC1=O` [Nefiracetam]: the normalised cell viability reads like this: under setting [1], 0.985 ± 0.014; under setting [2], 0.94 ± 0.0061; under setting [3], 0.996 ± 0.017; under setting [4], 0.966 ± 0.016; under setting [5], 0.9843 ± 0.007; under setting [6], 0.9927 ± 0.0075.

As to `CC(C)NC(C)Cc1ccc(I)cc1` (stereo not given) [Iofetamine hydrochloride], the normalised cell viability is, setting by setting: under setting [1], 0.997 ± 0.012; under setting [2], 0.938 ± 0.02; under setting [3], 1.003 ± 0.0061; under setting [4], 1.04 ± 0.085; under setting [5], 0.975 ± 0.0056; under setting [6], 0.9927 ± 0.0067.

For the compound `CN1CCCCC1Cn1cc(C(=O)c2cc([N+](=O)[O-])ccc2I)c2ccccc21` (stereo not given), the normalised cell viability was determined as 1.02 ± 0.015 under setting [1]; 0.99 ± 0.026 under setting [2]; 1.04 ± 0.01 under setting [3]; 1.01 ± 0.029 under setting [4]; 1.013 ± 0.0058 under setting [5]; 1.001 ± 0.0081 under setting [6].

Consider `COC(=O)N1CCN(C(=O)Cc2ccc(Cl)c(Cl)c2)C(CN2CCCC2)C1` (stereo not given), for which the normalised cell viability is, setting by setting: under setting [1], 1.02 ± 0.01; under setting [2], 1 ± 0.028; under setting [3], 1.02 ± 0.021; under setting [4], 1.04 ± 0.029; under setting [5], 0.9913 ± 0.0081; under setting [6], 0.9957 ± 0.0075.

For the compound `NCC#Cc1ccccc1` [3-Phenylpropargylamine hydrochloride], the normalised cell viability is 0.994 ± 0.0027 under setting [1]; 1 ± 0.016 under setting [2]; 1.02 ± 0.035 under setting [3]; 0.9913 ± 0.0081 under setting [4]; 0.9867 ± 0.0057 under setting [5]; 0.981 ± 0.0087 under setting [6].

With `N=C(NCCC[C@H](N)C(=O)O)N[N+](=O)[O-]` [NG-Nitro-L-arginine], the normalised cell viability by setting is: under setting [1], 1.003 ± 0.0058; under setting [2], 1.01 ± 0.022; under setting [3], 1.01 ± 0.017; under setting [4], 0.86 ± 0.24; under setting [5], 1 ± 0.012; under setting [6], 1.001 ± 0.0085.

Turning to `O=c1c2ccccc2[se]n1-c1ccccc1` [Ebselen], the normalised cell viability under setting [1] stood at 1.003 ± 0.0064; the normalised cell viability under setting [2] turned out to be 1.03 ± 0.011; the normalised cell viability under setting [3] turned out to be 1.005 ± 0.0092; the normalised cell viability under setting [4] turned out to be 1.03 ± 0.011; the normalised cell viability under setting [5] is 1.001 ± 0.0081; the normalised cell viability under setting [6] came out at 1.003 ± 0.0064.

On to `CCCN(CCC)C1Cc2cc(OC)c(OC)cc2C1`, for which the normalised cell viability runs as follows: under setting [1], 0.9987 ± 0.0023; under setting [2], 0.976 ± 0.013; under setting [3], 1.01 ± 0.021; under setting [4], 0.9727 ± 0.0097; under setting [5], 1.01 ± 0.01; under setting [6], 1 ± 0.011.

For `CC(=O)O[C@H]1C[C@@H]2CC[C@@H]3[C@H](CC[C@@]4(C)[C@H]3C[C@H]([N+]3(C)CCCCC3)[C@@H]4OC(C)=O)[C@@]2(C)C[C@@H]1[N+]1(C)CCCCC1` [Pancuronium bromide], the normalised cell viability is, setting by setting: under setting [1], 1 ± 0.015; under setting [2], 1.02 ± 0.01; under setting [3], 1.006 ± 0.0075; under setting [4], 1.05 ± 0.069; under setting [5], 1.01; under setting [6], 1.013 ± 0.0058.

For `CC(=O)O[C@H]1C[C@@H]2CC[C@@H]3[C@H](CC[C@@]4(C)[C@H]3C[C@H]([N+]3(C)CCCCC3)[C@@H]4OC(C)=O)[C@@]2(C)C[C@@H]1[N+]1(C)CCCCC1` [Pancuronium dibromide], the normalised cell viability under setting [1] came to 0.997 ± 0.015; the normalised cell viability under setting [2] is 0.963 ± 0.03; the normalised cell viability under setting [3] worked out at 1 ± 0.03; the normalised cell viability under setting [4] was 0.9813 ± 0.0075; the normalised cell viability under setting [5] was found to be 1 ± 0.011; the normalised cell viability under setting [6] worked out at 1.005 ± 0.0092.

As to `CN1CCc2cccc(Cl)c2CC1`, the normalised cell viability under setting [1] was determined as 0.9977 ± 0.004; the normalised cell viability under setting [2] is 1.006 ± 0.0075; the normalised cell viability under setting [3] was found to be 1.01 ± 0.026; the normalised cell viability under setting [4] stood at 0.9743 ± 0.0085; the normalised cell viability under setting [5] is 0.9863 ± 0.0015; the normalised cell viability under setting [6] turned out to be 0.9927 ± 0.0025.

As for `O=C(NCC1CCOCC1)c1cnc(Nc2ccc(Cl)cc2Cl)nc1C(F)(F)F`, the normalised cell viability is, setting by setting: under setting [1], 1.04 ± 0.015; under setting [2], 1.02 ± 0.015; under setting [3], 1.04 ± 0.017; under setting [4], 1.001 ± 0.0081; under setting [5], 1.017 ± 0.0058; under setting [6], 1.003 ± 0.0058.

Consider `COC(=O)[C@@H](N)CCCNC(=N)N[N+](=O)[O-]` [NG-Nitro-L-arginine methyl ester hydrochloride], for which the normalised cell viability runs as follows: under setting [1], 1.02 ± 0.018; under setting [2], 1.01 ± 0.038; under setting [3], 1.02 ± 0.022; under setting [4], 0.988 ± 0.023; under setting [5], 1.017 ± 0.0058; under setting [6], 1.02 ± 0.015.

Consider `Cn1c(CCCC(=O)O)nc2cc(N(CCCl)CCCl)ccc21` [bendamustine hydrochloride], for which the normalised cell viability reads like this: under setting [1], 1.02 ± 0.011; under setting [2], 0.348 ± 0.02; under setting [3], 1.007 ± 0.0058; under setting [4], 0.7867 ± 0.0031; under setting [5], 0.9937 ± 0.006; under setting [6], 0.0218 ± 0.0032.

The record behind these values is the supplement of paper PMC8285479.
